Experimental data: ChEMBL document CHEMBL4888484, “Replenishing the malaria drug discovery pipeline: Screening and hit evaluation of the MMV Hit Generation Library 1 (HGL1) against asexual blood stage Plasmodium falciparum ,using a nano luciferase reporter read-out” (2022)
Hit rate of the full screen: of about 150,000 compounds, about 540 (0.36%) showed an effect of 50% or more. Some of the results follow.

Tested on: Plasmodium falciparum
Assay: Primary screen in NF54 nanoGlo assay, in single point, at 2uM, 72h; a lower Z score goes with more inhibition
Assay type: functional, Erythrocyte
Details: timepoint 72 hour

Structure (SMILES) | % Inhibition [%] | Z score
COc1cccc([C@H]2CC(=O)Nc3c2c(=O)[nH]n3C(C)C)c1 | -14 | 1.79
O=C(CN1C(=O)[C@@H]2C[C@H](O)CN2C(=O)c2ccccc21)Nc1ccc(Cl)c(Cl)c1 | 1 | -0.15
Cc1ccc(C(=O)NCc2ccc3c(c2)CCN3C(=O)c2ccccc2)cc1 | -5 | 1.02
O=C1[C@@H]2C[C@@H](CN2C(=O)c2cnccn2)Oc2ccccc2N1Cc1cccnc1 | 0 | 0.01
O=C1Nc2ccccc2Oc2cc(NC3CCCC3)c(S(=O)(=O)N3CCOCC3)cc21 | -10 | 1.36
COc1ccc(CCNC(=O)C2CC(c3ccccc3)CN(C(=O)c3ccccc3F)C2)cc1 (centres undefined) | -7 | 0.83
O=C1c2ccccc2C(=O)N1c1ccc(-n2nncc2-c2ccc(Cl)cc2)cc1 | -4 | 0.9
Cc1c(F)cccc1NC(=O)C1CCN(C2CC2)CC1 | -7 | 0.81
CC#CCCNC(=O)c1cccnc1C | -5 | 0.66
Cc1nc(CN(CC#N)S(=O)(=O)N(C)C)sc1C | -10 | 1.02
N#Cc1cccc(-c2n[nH]c3c2CN(c2ccc(-c4ccccc4)nn2)CC3)c1 | 29 | -15.5
Cc1ccccc1C(=O)N1[C@H](C(=O)N2CCCC2)COC12CCN(C(=O)c1ccco1)CC2 | -12 | 1.7
COC(=O)C12CCCC1CN(CC(C)c1ccccc1)C2 (centres undefined) | -12 | 1.49
CN(C)c1ncc(CNc2cccc3oc(C(F)(F)F)nc23)cn1 | 3 | -0.44
CCN1CC(=O)N[C@H]2CN(C(=O)CO)CC[C@@H]2OCc2cccc(c2)Oc2cc(OC(C)C)cc(c2)C1=O | -9 | 1.68
CCn1c(N2CCC[C@H](C(=O)NCC3CCN(Cc4cccc(C)c4)CC3)C2)cc(=O)n(C)c1=O | -2 | 0.38
c1ccc(CCc2nc(CN3CCC4(C3)OCCO4)cs2)cc1 | -10 | 1.04
Cc1sc(-c2ccno2)cc1S(=O)(=O)Nc1cccc(C(F)(F)F)c1 | 2 | -0.21
Cc1ncoc1CNS(=O)(=O)C1Cc2ccccc2C1 | 5 | -0.8
CCc1nc(Cn2cc([C@H](O)c3ccccc3)cn2)no1 | -15 | 2.38
FC(F)(F)c1ccnc(NC2CCN(CC3CC3)CC2)c1 | -5 | 0.98

Structure (SMILES) | % Inhibition [%] | Z score
CNS(=O)(=O)c1cc(-c2ccc(OC3CC3)cc2)ccc1C | -17 | 2.38
CC1(C)CN(C(=O)c2cc3n(n2)CCCO3)c2ccc(Br)cc2O1 | 5 | -0.88
O=C(NC1CC(c2cccc(Cl)c2)C1)C1=NN(CCO)C(=O)CC1 (centres undefined) | -8 | 1.34
COc1cccc(N2CCN(C(=O)c3ccc(C)nc3C3CCN(C(=O)c4c(F)cccc4F)CC3)CC2)c1 | -12 | 2.4
COc1ccc(N2C(=O)C3ON(c4ccccc4)C(c4ccncc4)C3C2=O)cc1 (centres undefined) | 1 | -0.15
CC(C)(C(=O)NCc1ccc(S(C)(=O)=O)s1)C(F)(F)F | 0 | 0.06
O=C(NCc1cc(F)c(Cl)cc1F)[C@H]1C[C@@H]1C(F)(F)F | -10 | 1.21
CCN1N=C(C(=O)Nc2ccc(NC(=O)C(C)C)cc2)CC1=O | 4 | -0.71
Cc1cc(OCc2ccc(C(=O)NC3CCCCCC3)o2)ccc1Cl | 6 | -0.86
CC(NC(=O)C1CCC(=O)NC1)c1nnc2n1CCCCC2 (centres undefined) | -8 | 1.11
COC(=O)c1n[nH]cc1-c1cc(-c2ccc(O)cc2C)nc(N)c1C#N | 12 | -1.59
CNC(=NC[C@H](C)N(C)c1ccccc1)NC | -13 | 2.4
Cc1cc(NC(=O)C2CC(c3cccs3)NS(=O)(=O)N2C)no1 (centres undefined) | -7 | 0.76
COC[C@H](C)NC(=O)CN(C)C1CCC(C)CC1 (some centres undefined) | -9 | 0.94
COC(=O)[C@]1(F)CCN(Cc2cnc(CC(C)C)s2)C1 | -9 | 0.82
O=C(N[C@@H](N1CCCCC1)C(Cl)(Cl)Cl)c1cccnc1 | 40 | -5.14
Cc1cc(C)c(C(=O)N2CCS(=O)(=O)C3CCCC32)o1 (centres undefined) | 12 | -1.45
O=C(NCC(F)(F)F)N1CCOC(C2CCCO2)C1 (centres undefined) | 0 | 0.05
O=C(N[C@H]1CS(=O)(=O)Cc2ccccc21)c1cnn(CCF)c1 | -6 | 0.86
Cc1ncc(Cl)c(C(=O)Nc2nc(-c3cccc(C#N)c3)cs2)n1 | -7 | 1.07
COCC(=O)N1CC[C@H]2CN(Cc3cccc(F)c3F)C[C@@]2(CO)C1 | -13 | 1.78
